Measured values: publication PMC4361392
Results are given in words; binding and its absence hold for the method and conditions named. Binding seen in cells or lysates may run through a third protein. Some binding calls cover weakened binding; strength is not graded here.

By UniProt entry, the sequences of proteins in these tests, tags left out. Where a name states a change or a piece, a line headed by the entry shows the natural chain unless it says otherwise. Chains listed by the source or under a name are the forms on record and can include a tag or linker.
UniProt O43791: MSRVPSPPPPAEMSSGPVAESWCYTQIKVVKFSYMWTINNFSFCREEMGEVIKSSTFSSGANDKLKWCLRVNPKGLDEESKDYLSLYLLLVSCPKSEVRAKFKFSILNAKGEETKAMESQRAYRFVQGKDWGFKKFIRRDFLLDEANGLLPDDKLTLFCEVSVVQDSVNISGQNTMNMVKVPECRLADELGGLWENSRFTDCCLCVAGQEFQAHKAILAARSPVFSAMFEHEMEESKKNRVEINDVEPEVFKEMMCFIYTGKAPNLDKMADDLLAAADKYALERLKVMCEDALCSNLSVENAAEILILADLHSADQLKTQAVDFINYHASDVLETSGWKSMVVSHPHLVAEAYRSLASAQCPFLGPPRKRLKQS
UniProt P10275: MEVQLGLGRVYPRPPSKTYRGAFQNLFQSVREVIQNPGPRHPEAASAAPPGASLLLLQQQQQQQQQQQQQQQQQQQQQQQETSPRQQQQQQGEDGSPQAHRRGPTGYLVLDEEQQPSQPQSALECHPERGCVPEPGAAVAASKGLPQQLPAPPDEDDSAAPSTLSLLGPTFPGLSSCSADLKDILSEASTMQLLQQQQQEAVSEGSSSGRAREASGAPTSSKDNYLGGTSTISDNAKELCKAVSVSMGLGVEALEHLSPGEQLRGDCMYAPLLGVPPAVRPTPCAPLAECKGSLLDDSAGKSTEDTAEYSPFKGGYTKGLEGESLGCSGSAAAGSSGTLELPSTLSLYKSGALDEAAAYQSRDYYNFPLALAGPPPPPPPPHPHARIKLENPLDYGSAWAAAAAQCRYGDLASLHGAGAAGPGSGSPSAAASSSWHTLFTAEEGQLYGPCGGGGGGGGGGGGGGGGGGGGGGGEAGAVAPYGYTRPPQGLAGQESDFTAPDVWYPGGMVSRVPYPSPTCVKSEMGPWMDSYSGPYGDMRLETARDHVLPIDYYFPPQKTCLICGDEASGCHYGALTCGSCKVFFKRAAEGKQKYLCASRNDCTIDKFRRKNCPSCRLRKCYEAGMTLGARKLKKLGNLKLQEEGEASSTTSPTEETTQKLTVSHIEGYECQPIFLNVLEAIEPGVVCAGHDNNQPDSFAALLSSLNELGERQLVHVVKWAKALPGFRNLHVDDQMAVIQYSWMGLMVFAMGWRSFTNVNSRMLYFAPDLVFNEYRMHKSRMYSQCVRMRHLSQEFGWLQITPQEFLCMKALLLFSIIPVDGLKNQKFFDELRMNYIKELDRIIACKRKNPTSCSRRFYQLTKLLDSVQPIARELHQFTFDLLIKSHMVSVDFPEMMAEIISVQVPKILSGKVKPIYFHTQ
AR splicing variant V7, ectopically expressed (P10275-3, form named): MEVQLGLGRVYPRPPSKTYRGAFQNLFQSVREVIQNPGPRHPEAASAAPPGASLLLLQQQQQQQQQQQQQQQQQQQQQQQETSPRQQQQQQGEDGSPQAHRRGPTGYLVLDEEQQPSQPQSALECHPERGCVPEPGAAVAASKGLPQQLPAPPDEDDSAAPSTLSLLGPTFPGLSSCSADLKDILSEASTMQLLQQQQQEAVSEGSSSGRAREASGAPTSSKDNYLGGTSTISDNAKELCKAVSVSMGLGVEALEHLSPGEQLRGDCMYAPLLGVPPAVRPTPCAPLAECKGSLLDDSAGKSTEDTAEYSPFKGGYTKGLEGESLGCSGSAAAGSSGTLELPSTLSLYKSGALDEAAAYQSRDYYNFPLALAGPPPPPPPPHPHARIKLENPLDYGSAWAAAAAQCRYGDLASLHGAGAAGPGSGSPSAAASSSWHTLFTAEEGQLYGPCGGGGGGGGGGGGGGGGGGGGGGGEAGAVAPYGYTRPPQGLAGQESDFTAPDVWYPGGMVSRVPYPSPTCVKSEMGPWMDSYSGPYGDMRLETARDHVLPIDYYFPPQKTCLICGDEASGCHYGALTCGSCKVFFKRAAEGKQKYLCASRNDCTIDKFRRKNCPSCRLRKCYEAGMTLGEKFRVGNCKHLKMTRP

Experiments:
[1] = biological target: Myc-SPOP wild type (human) (UniProt O43791); assay: co-IP; 293T cells transfected with the indicated plasmids 16 hr, 20 µM MG132 for 8 hr; coIP and WB, antibody of the IP not stated (Figures 4B and 5B)
[2] = biological target: wild-type androgen receptor (AR-WT), ectopically expressed (human) (UniProt P10275); assay: co-IP; reciprocal: 293T cells transfected 16 hr, 20 µM MG132 for 8 hr; coIP with anti-AR, WB (Figure 2B)
[3] = biological target: HA-SPOP (human) (UniProt O43791); assay: co-IP; 293T cells transfected 16 hr, 20 µM MG132 for 8 hr; coIP with anti-HA, WB (Figure 2A)
[4] = biological target: Myc-SPOP wild type (human) (UniProt O43791); assay: co-IP; 293T cells transfected with Myc-SPOP and AR WT or deletion mutants 16 hr, 20 µM MG132 for 8 hr; coIP with Myc antibody, WB (Figure 3B)
[5] = biological target: Myc-SPOP F102C (human) (UniProt O43791); assay: co-IP; 293T cells transfected with the indicated plasmids 16 hr, 20 µM MG132 for 8 hr; coIP and WB, antibody of the IP not stated (Figures 4B and 5B)
[6] = biological target: Myc-SPOP F125V (human) (UniProt O43791); assay: as above
[7] = biological target: Myc-SPOP F133L (human) (UniProt O43791); assay: as above
[8] = biological target: Myc-SPOP F133V (human) (UniProt O43791); assay: as above
[9] = biological target: Myc-SPOP S119N (human) (UniProt O43791); assay: as above
[10] = biological target: Myc-SPOP W131G (human) (UniProt O43791); assay: as above
[11] = biological target: Myc-SPOP Y87C (human) (UniProt O43791); assay: as above
[12] = biological target: Myc-SPOP Y87N (human) (UniProt O43791); assay: as above

binding [1] | binding [2] | binding [3] | binding [4] | binding [5] | binding [6] | binding [7] | binding [8] | binding [9] | binding [10] | binding [11] | binding [12] | Substance
no binding |  |  |  |  |  |  |  |  |  |  |  | AR splicing variant V7, ectopically expressed (from UniProt P10275-3 1-644)
 | binds |  |  |  |  |  |  |  |  |  |  | HA-SPOP (from UniProt O43791 1-374)
binds |  | binds | binds | no binding | no binding | no binding | no binding | no binding | no binding | no binding | no binding | wild-type androgen receptor (AR-WT), ectopically expressed (from UniProt P10275 1-920)
